This is one part of the list.

The target of the assay is T1, OsWOX13 (Oryza sativa, UniProt Q5QMM3 1-267).
T1 sequence: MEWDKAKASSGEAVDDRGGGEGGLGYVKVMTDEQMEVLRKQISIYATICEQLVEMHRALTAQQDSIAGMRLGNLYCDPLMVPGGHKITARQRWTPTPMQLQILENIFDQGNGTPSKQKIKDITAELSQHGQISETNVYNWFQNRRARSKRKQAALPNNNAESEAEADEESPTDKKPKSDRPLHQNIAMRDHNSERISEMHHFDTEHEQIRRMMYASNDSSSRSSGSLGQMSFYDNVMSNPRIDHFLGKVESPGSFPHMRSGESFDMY
Put plainly: protein-binding microarray (RPBM); PBS, 2% BSA, 51.3 ng/ul salmon testes DNA, 50 uM zinc acetate, 200 nM TF, 25 C, 1 h; high values mean tight binding. Particulars: protein: recombinant; tags: N-terminal polyhistidine and DsRed monomer fusion (pET32a); label: CyDye5-dUTP incorporated in the synthesized complementary strand; 3' TTTTT single-stranded linker to array surface; dsDNA, one strand shown. In outline:
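Binding signal is reported as fluorescence intensity per feature (arbitrary units) from an Axon 4000B scanner. Incubation used 200 nM of each Ni–NTA-purified, N-terminally polyhistidine- and DsRed-fused transcription factor from E. coli BL21-CodonPlus on a double-stranded custom Agilent array for 1 h at 25 °C, with 50 µM zinc acetate in the buffer, followed by washing.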
For “GCAAATAACTGAATGAACGTTTATCTCATTCCGGCACGCACGGAGTCACCTAGTGCAG”, the binding signal is 8180 fluorescence intensity (a.u.).

For “CGTCCCTAAATTGGACAAAATTACACTGAACTACGCAGATCGGAGTCACCTAGTGCAG”, the binding signal is 7270 fluorescence intensity (a.u.).

Take “TTGTTTTGATTAATTGCAGTTTTAGACTTGCTCCGCTTCTCGGAGTCACCTAGTGCAG”: the binding signal is 33100 fluorescence intensity (a.u.).

As to “CTCGACATGCTATGATTAGTGAATCTTAATATTTTGTATTCGGAGTCACCTAGTGCAG”, the binding signal was 4120 fluorescence intensity (a.u.).

With “ACAGTTATTAATACGTGATTAATTAAGTACCCATTAATACCGGAGTCACCTAGTGCAG”, the binding signal is 28300 fluorescence intensity (a.u.).

With “GTGTTTAATTAGGAGGGAATTCATATCCTTTGTTTGGTGGCGGAGTCACCTAGTGCAG”, the binding signal is 20500 fluorescence intensity (a.u.).

With “GAAGCAATCAATTAAAATAATGCCTTGAGTGCATGCAATTCGGAGTCACCTAGTGCAG”, the binding signal was 18300 fluorescence intensity (a.u.).

For “ATAATTGTTTAGTTCCTTCAAACTTTCAACTTTTCCGTCACGGAGTCACCTAGTGCAG”, the binding signal is 14600 fluorescence intensity (a.u.).

As for “CGTGATTTACCATTTACGTTACGAGTAATCTCCCTATGAACGGAGTCACCTAGTGCAG”, the binding signal is 27600 fluorescence intensity (a.u.).

Consider “GGCTTAATAGATTTAATTAATTGAAGGATAATCGAACCGTCGGAGTCACCTAGTGCAG”, for which the binding signal is 43900 fluorescence intensity (a.u.).

For “CATATTACGATAAATTAGTATTAGGCCGACCCAAGGCCTGCGGAGTCACCTAGTGCAG”, the binding signal is 6820 fluorescence intensity (a.u.).

With “TTTAATTGATACAAGTTGCTGGGATCATTTGTACCCAAAACGGAGTCACCTAGTGCAG”, the binding signal was 38200 fluorescence intensity (a.u.).

As to “GTGGTGTAGGAGCAAATTGACGAGATGCGAGCAGTGCGACCGGAGTCACCTAGTGCAG”, the binding signal was 7570 fluorescence intensity (a.u.).

Turning to “AGGATAACAATTGATATTAGTTTATTCTCTAATATTCATGCGGAGTCACCTAGTGCAG”, the binding signal is 6550 fluorescence intensity (a.u.).

Take “GGTTCAACGGTACCCTTGATTGCTATAGAGAGTGATATATCGGAGTCACCTAGTGCAG”: the binding signal is 4670 fluorescence intensity (a.u.).

As to “TGCAGAGTAATGATTAGAACCAAACCTCGTCAATTCAAGGCGGAGTCACCTAGTGCAG”, the binding signal was 3450 fluorescence intensity (a.u.).

With “ATAAGTTAATAGATAGATTAACTTCATTTCTGATTATGAACGGAGTCACCTAGTGCAG”, the binding signal is 15900 fluorescence intensity (a.u.).

As to “TGTTGATTGTTGTGTTTAATTGGAGATTGACTATTGAATCCGGAGTCACCTAGTGCAG”, the binding signal was 60200 fluorescence intensity (a.u.).

In the case of “CATTCCTGATTATGCAAATCAATGACCAGGCCATAATTGTCGGAGTCACCTAGTGCAG”, the binding signal is 31000 fluorescence intensity (a.u.).

Take “ATTGAACTTAATTTGTTTGGAGAAGGGGCGGCATGGTACCCGGAGTCACCTAGTGCAG”: the binding signal was 9790 fluorescence intensity (a.u.).

In the case of “ACTAATTAGCACTCCCAATGTCATATTATAGAGGGCATACCGGAGTCACCTAGTGCAG”, the binding signal was 39700 fluorescence intensity (a.u.).

Consider “GCTGGATTAGTACTAATCTTGGTACTACTTGTTTAAATTTCGGAGTCACCTAGTGCAG”, for which the binding signal is 5700 fluorescence intensity (a.u.).

Turning to “CAGGATTGATCAGCAAATCAAGCGATGATGATAAGAACAACGGAGTCACCTAGTGCAG”, the binding signal was 14900 fluorescence intensity (a.u.).

In the case of “AGATAAATTATGCGACACGCTAATAATACAGATCTATGCACGGAGTCACCTAGTGCAG”, the binding signal was 9780 fluorescence intensity (a.u.).

Consider “AACTAATTAAAGCACAAGATACGCATGTTATCTCAATAAACGGAGTCACCTAGTGCAG”, for which the binding signal is 3960 fluorescence intensity (a.u.).

Turning to “ACGAACAAAATTAATCAGGAAGATCAACACGAAGCCGGACCGGAGTCACCTAGTGCAG”, the binding signal is 4060 fluorescence intensity (a.u.).

On to “AGTTGATTTTGAACTTACAATGATATTCTCTGGTAGTAGTCGGAGTCACCTAGTGCAG”, for which the binding signal is 13800 fluorescence intensity (a.u.).

For the sequence “TTTCTTTACTGATTGGTTTGTTTTATGCGCACATTGTTACCGGAGTCACCTAGTGCAG”, the binding signal was 27600 fluorescence intensity (a.u.).

As for “CAAAATTAGTTTGATTCTAAAATTGAATATATTTTGATAACGGAGTCACCTAGTGCAG”, the binding signal is 10600 fluorescence intensity (a.u.).

On to “AGAGTTAAATTACACCGGTTTTAACAGCTGAGGGGCCATACGGAGTCACCTAGTGCAG”, for which the binding signal is 6400 fluorescence intensity (a.u.).

For the sequence “TTGCTAATGACGGATTAATTATGCTTAATAAATTCATCTCCGGAGTCACCTAGTGCAG”, the binding signal is 20600 fluorescence intensity (a.u.).

Consider “TATTCAATCATCCAAGGTTTGCATATCATTGACCGGCGTGCGGAGTCACCTAGTGCAG”, for which the binding signal was 14400 fluorescence intensity (a.u.).

As for “CCAAACTTCTAATTTTGATGTGAACACCCTATGTTATAAACGGAGTCACCTAGTGCAG”, the binding signal was 3540 fluorescence intensity (a.u.).

On to “CGAGACCATGATAGATAGGCTTTCCAAACTTCCTAGCCAGCGGAGTCACCTAGTGCAG”, for which the binding signal is 9220 fluorescence intensity (a.u.).

For the sequence “CCTAAATTATCGTGGAACTGTACGTCAGTGTAATAATTGTCGGAGTCACCTAGTGCAG”, the binding signal was 14300 fluorescence intensity (a.u.).

“CAAGACAAATTTAGTTTATACCTTTAAAAGTCTGTCATCTCGGAGTCACCTAGTGCAG”: the binding signal was 4030 fluorescence intensity (a.u.).

For “GAATAATTGCTGGAACGCAGGATTCCCTTCTGGGCCTCCGCGGAGTCACCTAGTGCAG”, the binding signal is 18200 fluorescence intensity (a.u.).

For the sequence “CAGAATGACAACATTGACTGATTGACACTAGAAATACATACGGAGTCACCTAGTGCAG”, the binding signal was 39000 fluorescence intensity (a.u.).

For the sequence “TAGATCTTAGCTTAATTAGCTTAGATTATACAAGTGGTCACGGAGTCACCTAGTGCAG”, the binding signal was 4760 fluorescence intensity (a.u.).

For “CTTGATATTAGTGATACAAAATTTCGTCAGCCATAGACGGCGGAGTCACCTAGTGCAG”, the binding signal was 3900 fluorescence intensity (a.u.).

On to “AATGTCTGCAATTAATCAATCTGTTAATCTGTTATTAGTACGGAGTCACCTAGTGCAG”, for which the binding signal was 21900 fluorescence intensity (a.u.).

Turning to “GGTTTGAAAGAGTTAATTAGGGTTGAATCTTTCACATTAGCGGAGTCACCTAGTGCAG”, the binding signal is 8180 fluorescence intensity (a.u.).
